Results taken from PubChem BioAssay AID588855 (National Center for Advancing Translational Sciences (NCATS), 2011).
About 5,000 (1.2%) of roughly 410,000 compounds were called active. This list was built around the results that the source calls inconclusive (neither active nor inactive); the mix of calls is not that of the screen. Calls come from the whole dose curve; as a rule, active = well fitted inhibition curve with a large enough effect; inconclusive = small, poorly fitted or top-dose-only effect; inactive = no such curve, though single readings can be large or run the other way. Potencies beside an inconclusive call are fits to weak or partial responses and may not hold up.

Assay: qHTS for Inhibitors of TGF-b; note: nearly all actives have a fitted effect of over 65% in size
Settings: HepG2 CAGA-GFP TGF-b/SMAD3 reporter, GFP fluorescence, 18 h, TGF-beta stimulated, 500 pg/mL final; series mostly up to 46.1 µM; activity, negative = inhibition: at the top concentration
In short: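 Inhibition was scored as loss of TGF-beta-induced (500 pg/mL final, 18 hours, 37 degrees C) GFP in HEPG2 cells carrying a CAGA-GFP reporter, in DMEM with 1% FBS. Well GFP was summed per cell; Activity was normalised to unstimulated and stimulated DMSO wells, then concentration-response fitting.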
% is set by controls: 0 for no effect and ±100 for the full control effect; potency is the fitted concentration of half-maximal effect; tags give direction and shape of the fitted curve.

| Compound | Potency | activity, negative = inhibition |
| --- | --- | --- |
| Cc1ccnc(NS(=O)(=O)c2ccc3ccccc3c2)n1 | inconclusive: 2.51 µM [inhibitor, partial curve, poor fit] | – |
| Cc1ccc(OCCSc2nc(NC(C)C)nc(NC(C)C)n2)cc1 | inconclusive: 25.1 µM [inhibitor, single point] | – |
| CC(C)CCn1c(Oc2ccccc2Cl)nc2c1c(=O)n(C)c(=O)n2C | inconclusive: 35.5 µM [inhibitor, single point] | – |
| CN1CCN(C(=S)NC(=O)/C=C/c2ccccc2Cl)CC1 | – | inactive: 0% |
| CCS(=O)(=O)c1nc(S(=O)(=O)c2ccc(Cl)cc2)c(NCCCN2CCOCC2)s1 | – | inactive: 7.7% |
| CCOc1ccc(C(=O)CCC(=O)N(CC)CC(=O)NCc2ccc(Cl)cc2)cc1 | inconclusive: 35.5 µM [inhibitor, single point] | – |
| CCCC/C=C/[C@H](c1ccccc1)[C@H](CO)Cc1cnc2ccccc2c1 | inconclusive: 35.5 µM [inhibitor, single point] | – |
| COc1ccc(NC(=O)CSc2nnc(-c3ccccc3Cl)n2Cc2ccco2)c(OC)c1 | – | inactive: -0.774% |
| CC1=CC(C)(C)N(S(=O)(=O)c2ccc(F)cc2)c2ccccc21 | inconclusive: 35.5 µM [inhibitor, single point] | – |
| O=c1[nH]c(C2CCN(S(=O)(=O)c3cccc(Cl)c3)CC2)nc2c1nnn2Cc1ccccc1 | inconclusive: 12.6 µM [inhibitor, partial curve, poor fit] | – |
| CC(Sc1nc(=O)cc(N)n1CCc1ccccc1)C(=O)Nc1ccc(Cl)cc1 (configuration not stated) | – | inactive: -6.11% |
| COc1ccc(NC(=O)Nc2nnc(C)s2)cc1 | – | inactive: -0.676% |
| COCCNC(=O)C1(C)CCN(C(=O)Cc2ccc(OC)c(OC)c2)C1 (configuration not stated) | – | inactive: 30.7% |
| CCc1noc(C)c1C(=O)Nc1nc(-c2cccs2)cs1 | – | inactive: -3.43% |
| O=c1c2oc3ccccc3c2n(Cc2ccc(Cl)cc2)c(=O)n1Cc1ccco1 | – | inactive: -2.77% |
| N#CC1=C(N)N(c2ccccc2)C2=C(C(=O)CCC2)C1c1ccsc1 (configuration not stated) | – | inactive: -2.08% |
| S=C(NCCSCc1ccc(Cl)cc1)Nc1ccccc1 | inconclusive: 31.6 µM [inhibitor, single point] | – |
| O=C(O)c1ccc(C(=O)C(=O)c2ccccc2)cc1 | – | inactive: 2.2% |
| Nc1nc(Nc2ccccc2)nc(N2CCCC2)c1[N+](=O)[O-] | inconclusive: 35.5 µM [inhibitor, single point] | – |
| COc1ccc(Cl)cc1NC(=O)c1cccc([N+](=O)[O-])c1O | active: 11.2 µM | – |
| CC(CCc1ccccc1)NCc1cccc2ccccc12 (configuration not stated) | inconclusive: 35.5 µM [inhibitor, single point] | – |
| Cc1ccccc1NC(=O)CSc1ccc(-c2ccco2)nn1 | inconclusive: 5.62 µM [inhibitor, single point] | – |
